Consider 41 compounds from PubChem BioAssay (NCATS).

Structures are written as SMILES. Some of the results follow. Further columns of the screen follow, without active or inactive calls. Compounds called inactive in the main read-out are mostly missing here. The note in brackets gives the kind of curve behind each potency; many fits are weak.

A short description of this experiment: Cell-based coincidence reporter assay to measure PMP22 gene transcription in S16 Pmp22-F2sN cells - Confirmatory screen (AID 1508646). The settings on record: S16 Schwann cells Pmp22-F2sN, dual luciferase, 24 h. The method, boiled down:
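Coincidence reporter read as sequential FLuc then NLuc luminescence (Nano-Glo Dual-Luciferase, 10 min each). Engineered S16 Pmp22-F2sN Schwann cells, 500-1,000 per well in DMEM/10% FBS, were exposed to compounds for 24 h, 37C.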
Background: Reporter assays use an easily measured gene product as a stand-in for the process of interest.

The mark [1] stands for this setting: measured here: FLuc reporter channel.
Where [2] appears, read: measured here: NLuc reporter channel.
Tags describe the fitted curve by direction and shape.

With `CN(C)CCN(Cc1ccco1)C(=O)c1cc2c(s1)-c1ccccc1OC2`, the half-maximal activity concentration (AC50) is 34.3 µM [falling, single point] under setting [1] and 43.2 µM [falling, partial curve] under setting [2].
Turning to `Cc1[nH]c2ccccc2c1C1(O)C(=O)N(Cc2ccccc2)c2ccc(Br)cc21` (configuration not stated), the AC50 is, setting by setting: under setting [1], 21.7 µM [falling, partial curve, poor fit]; under setting [2], 30.6 µM [falling, partial curve].
For `Cc1cccc(C)c1Nc1c(-c2ccsc2)nc2ccccn12`, the AC50 was 24.3 µM [falling, single point] under setting [1] and 1.72 µM [rising, full curve, poor fit] under setting [2].
With `CCCCCS(=O)(=O)c1oc(-c2cccs2)nc1S(=O)(=O)c1ccc(C)cc1`, the AC50 was 17.2 µM [falling, partial curve] under setting [1] and 17.2 µM [falling, partial curve] under setting [2].
For `COc1ccc(-c2cc(C(F)(F)F)n3nc(C)c(-c4ccccc4)c3n2)cc1OC`, the concentration at half-maximal activity (AC50) reads like this: under setting [1], 15.3 µM [falling, partial curve]; under setting [2], 17.2 µM [falling, partial curve, poor fit].
Consider `COC(=O)c1ccccc1NC(=O)c1nc(S(=O)(=O)Cc2cccc(C)c2)ncc1Cl`, for which the concentration at half-maximal activity (AC50) was 6.85 µM [falling, full curve] under setting [1] and 7.69 µM [falling, full curve] under setting [2].
As for `Cc1ccc(C)c(N2CCN(C(=O)C3CCCN(S(=O)(=O)c4ccc5c(c4)oc(=O)n5C)C3)CC2)c1` (configuration not stated), the AC50 under setting [1] was 19.3 µM [falling, partial curve, poor fit] and the concentration at half-maximal activity (AC50) under setting [2] was 27.3 µM [falling, single point].
Regarding `COc1ccc(NS(=O)(=O)c2ccc3[nH]c4c(c3c2)CCCC4)cc1OC`, the AC50 was 27.3 µM [falling, single point] under setting [1] and 10.9 µM [falling, partial curve, poor fit] under setting [2].
Take `Cc1cccc(CS(=O)(=O)c2ncc(Cl)c(C(=O)Nc3nc4ccc(F)cc4s3)n2)c1`: the AC50 was 9.68 µM [falling, partial curve] under setting [1] and 10.9 µM [falling, partial curve] under setting [2].
For `CCOc1ccccc1NC(=O)c1c(NCc2ccc(C)o2)sc2c1CCCCC2`, the AC50 is 21.7 µM [falling, partial curve, poor fit] under setting [1] and 21.7 µM [falling, partial curve] under setting [2].
For `O=C(NCc1ccccc1)c1cccc(Nc2nc3ccccc3n3nnnc23)c1`, the AC50 reads like this: under setting [1], 13.7 µM [falling, full curve]; under setting [2], 13.7 µM [falling, full curve].
Take `CCc1ccc(CNC(=O)CSc2c3c(nc4ccc(Cl)cc24)CCCC3)cc1`: the AC50 under setting [1] was 15.3 µM [falling, single point] and the AC50 under setting [2] is 15.3 µM [falling, single point].
With `COCCn1c(SCc2ccccc2F)nc2c([nH]c3ccccc32)c1=O`, the AC50 under setting [1] is 24.3 µM [falling, partial curve, poor fit] and the concentration at half-maximal activity (AC50) under setting [2] is 24.3 µM [falling, partial curve, poor fit].
Take `Cc1ccc(-n2c(=O)c3ccc(C(=O)NCc4ccccc4Cl)cc3n(CC(=O)Nc3ccc(C)cc3C)c2=O)cc1`: the AC50 is 6.11 µM [falling, full curve] under setting [1] and 10.9 µM [falling, partial curve] under setting [2].
In the case of `CCc1ccc(CNC(=O)c2nn(-c3ccc(C)cc3)c(=O)c3c2c2ccccc2n3C)cc1`, the half-maximal activity concentration (AC50) reads like this: under setting [1], 24.3 µM [falling, partial curve]; under setting [2], 21.7 µM [falling, partial curve].
`COc1ccccc1-c1nc2c(c(SCC(=O)Nc3ccc(C)c(C)c3)n1)Cc1c(CO)cnc(C)c1O2`: the AC50 is 24.3 µM [falling, partial curve] under setting [1] and 30.6 µM [falling, single point] under setting [2].
As to `CCc1ccc(-c2cc(C)no2)cc1S(=O)(=O)NCc1ccc(OC)cc1`, the AC50 reads like this: under setting [1], 1.72 µM [falling, full curve]; under setting [2], 9.68 µM [falling, partial curve].
Consider `CCc1ccc(C2CC(=O)c3c([nH]c(C(=O)OCc4ccc(C)cc4)c3C)C2)cc1` (configuration not stated), for which the AC50 by setting is: under setting [1], 15.3 µM [falling, partial curve, poor fit]; under setting [2], 15.3 µM [falling, partial curve].
Consider `Cc1ccccc1NC(=O)Cn1c(=O)n(Cc2ccc3c(c2)OCO3)c(=O)c2ccc(C(=O)NC3CCCCC3)cc21`, for which the AC50 is 15.3 µM [falling, partial curve] under setting [1] and 13.7 µM [falling, partial curve] under setting [2].
`CCOC(=O)c1ccccc1NC(=O)c1nn(C)c2c1COc1ccccc1-2`: the half-maximal activity concentration (AC50) reads like this: under setting [1], 17.2 µM [falling, partial curve]; under setting [2], 19.3 µM [falling, partial curve].
With `CCc1ccccc1NC(=O)Cn1nc(CC)n2c(cc3sccc32)c1=O`, the half-maximal activity concentration (AC50) by setting is: under setting [1], 34.3 µM [falling, single point]; under setting [2], 21.7 µM [falling, partial curve].
As for `CCOC(=O)c1ccc(N2C(=O)c3n[nH]c(-c4cccs4)c3C2c2ccc(O)c(OC)c2)cc1` (configuration not stated), the AC50 reads like this: under setting [1], 24.3 µM [falling, partial curve]; under setting [2], 24.3 µM [falling, partial curve].
In the case of `CCN(CC)c1ccc(NC(=O)C2COc3ccc(OC)cc3C2)c(C)c1` (configuration not stated), the half-maximal activity concentration (AC50) was 13.7 µM [falling, partial curve] under setting [1] and 15.3 µM [falling, partial curve] under setting [2].
As for `CCOc1ccccc1Nc1sc(C(=O)c2ccccc2)c(N)c1S(=O)(=O)c1ccc(C)cc1`, the AC50 under setting [1] was 10.9 µM [falling, full curve, poor fit] and the AC50 under setting [2] was 12.2 µM [falling, full curve, poor fit].
With `COC(=O)c1c(-c2ccc(Cl)cc2)noc1N1CCN(c2ccccc2OC)CC1`, the concentration at half-maximal activity (AC50) by setting is: under setting [1], 19.3 µM [falling, partial curve]; under setting [2], 19.3 µM [falling, partial curve].
With `CCC(=O)N1CCc2cc(S(=O)(=O)CCC(=O)N3CCN(c4ccc(Cl)cc4)CC3)ccc21`, the concentration at half-maximal activity (AC50) runs as follows: under setting [1], 15.3 µM [falling, full curve, poor fit]; under setting [2], 21.7 µM [falling, partial curve].
For the compound `COc1cc(-c2nc(Cn3nnc(C(=O)Nc4cc(C)cc(C)c4)c3C)c(C)o2)cc(OC)c1OC`, the AC50 under setting [1] is 17.2 µM [falling, partial curve, poor fit] and the AC50 under setting [2] is 19.3 µM [falling, partial curve].
In the case of `CCN1C(=O)c2ccccc2S(=O)c2ccc(C(=O)N3CCN(c4cccc(Cl)c4)CC3)cc21` (configuration not stated), the AC50 reads like this: under setting [1], 24.3 µM [falling, partial curve, poor fit]; under setting [2], 24.3 µM [falling, partial curve].
In the case of `CC1=Nc2cc(C(=O)NCc3ccccc3Cl)ccc2Sc2c(C)ccc(C)c21`, the AC50 was 2.17 µM [falling, full curve] under setting [1] and 2.73 µM [falling, full curve] under setting [2].
With `CCCCN(CC)C(=O)CSc1nc2n[nH]c(C)c2c(=N)n1-c1ccc(CC)cc1`, the half-maximal activity concentration (AC50) by setting is: under setting [1], 19.3 µM [falling, partial curve]; under setting [2], 27.3 µM [falling, partial curve, poor fit].
For `CC1=Nc2cc(C(=O)NCCc3ccc(Cl)cc3)ccc2Sc2c(C)ccc(C)c21`, the AC50 was 10.9 µM [falling, partial curve] under setting [1] and 5.44 µM [falling, full curve, poor fit] under setting [2].
As to `CCN(CC)CCn1c2c(c(SCC(=O)Nc3cccc(C(F)(F)F)c3)nc1=O)CCC2`, the AC50 is 21.7 µM [falling, partial curve, poor fit] under setting [1] and 21.7 µM [falling, partial curve, poor fit] under setting [2].
Take `CCOC(=O)c1c(C)[nH]c(CCC(=O)NCCCN2CCN(c3cc(C)ccc3C)CC2)c1C`: the AC50 runs as follows: under setting [1], 21.7 µM [falling, partial curve]; under setting [2], 30.6 µM [falling, partial curve].
Take `Cc1nnc(N2CCCC(C(=O)Nc3ccccc3C(F)(F)F)C2)c2nn(-c3ccccc3)c(C)c12` (configuration not stated): the AC50 runs as follows: under setting [1], 43.2 µM [falling, single point]; under setting [2], 12.2 µM [falling, partial curve, poor fit].
Turning to `COc1ccc(OC)c(CNC(=O)c2c(C)oc3ncn(CC(C)C)c(=O)c23)c1`, the half-maximal activity concentration (AC50) runs as follows: under setting [1], 19.3 µM [falling, partial curve]; under setting [2], 24.3 µM [falling, partial curve].
Regarding `COc1ccc(N2CCN(CCCNC(=O)c3ccc4nc(Cc5ccccc5)oc4c3)CC2)cc1`, the concentration at half-maximal activity (AC50) is, setting by setting: under setting [1], 34.3 µM [falling, partial curve, poor fit]; under setting [2], 30.6 µM [falling, partial curve].
Regarding `COc1ccc(Nc2nc3c(S(=O)(=O)c4ccc(C)cc4)nnn3c3ccsc23)cc1Cl`, the AC50 by setting is: under setting [1], 10.9 µM [falling, partial curve]; under setting [2], 21.7 µM [falling, partial curve].
Turning to `COc1cccc(NC(=O)CCCn2c(=O)c3cccn3c3cccnc32)c1`, the concentration at half-maximal activity (AC50) reads like this: under setting [1], 21.7 µM [falling, partial curve, poor fit]; under setting [2], 6.11 µM [falling, partial curve, poor fit].
As to `CCOC(=O)c1ccc(-c2ccc(/C=C(\C#N)C(=O)Nc3cccc(C)c3)o2)cc1`, the AC50 is 17.2 µM [falling, partial curve] under setting [1] and 17.2 µM [falling, partial curve] under setting [2].
On to `COc1ccccc1N1CCN(c2ncnc3c2cnn3-c2cc(Cl)ccc2C)CC1`, for which the half-maximal activity concentration (AC50) under setting [1] was 27.3 µM [falling, partial curve] and the AC50 under setting [2] is 30.6 µM [falling, partial curve].
Turning to `Cc1nnc(N2CCC(C(=O)N3CCCCC3)CC2)c2nn(-c3ccc(Cl)cc3)c(C)c12`, the concentration at half-maximal activity (AC50) by setting is: under setting [1], 19.3 µM [falling, partial curve]; under setting [2], 21.7 µM [falling, partial curve].

In general, AC50 refers to the concentration giving half of the maximal activity seen.
